Assay results: article PMC5423623
These are yes or no findings as the source states them, for the method shown. In cells and extracts the contact can be indirect. Some entries that bind do so weakly or less than the wild type. Blank lines part the entries; values can stand above or below the molecule they belong to.

The chains behind the UniProt entries cited, without tags or fusion partners. Where a name states a change or a piece, a line headed by the entry shows the natural chain unless it says otherwise.
UniProt P62142: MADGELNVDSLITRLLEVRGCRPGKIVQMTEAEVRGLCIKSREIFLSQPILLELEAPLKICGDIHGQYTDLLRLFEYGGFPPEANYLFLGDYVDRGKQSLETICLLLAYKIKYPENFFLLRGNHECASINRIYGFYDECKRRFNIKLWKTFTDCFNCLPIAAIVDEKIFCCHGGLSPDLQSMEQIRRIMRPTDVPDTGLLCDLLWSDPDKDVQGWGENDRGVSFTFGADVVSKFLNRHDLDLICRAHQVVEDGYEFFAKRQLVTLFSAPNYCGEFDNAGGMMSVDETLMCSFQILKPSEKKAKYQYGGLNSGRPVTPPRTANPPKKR
UniProt P60881: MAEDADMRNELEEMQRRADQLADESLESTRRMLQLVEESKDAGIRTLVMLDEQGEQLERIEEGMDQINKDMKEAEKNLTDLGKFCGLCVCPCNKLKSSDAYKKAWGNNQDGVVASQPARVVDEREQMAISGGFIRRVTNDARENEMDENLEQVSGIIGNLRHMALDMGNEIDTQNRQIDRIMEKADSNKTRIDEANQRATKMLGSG

Assays:
Assay in all cases: co-IP; reciprocal immunoprecipitation from precleared B50 neuroblastoma cell lysate with anti-SNAP-25, anti-MYPT1^1-296 or anti-PP1cδ on protein-A Sepharose; IP buffer 50 mM Tris-HCl pH 7.4, 150 mM NaCl, 1 mM EDTA, 1% Triton X-100; 90 min at 4°C; Western blot; control: rabbit non-immune serum
[1] = target: T1, myosin phosphatase targeting subunit (MYPT1), endogenous in B50 neuroblastoma cells (rat (endogenous in B50; the species of the line is from memory, the paper does not state it)) (UniProt Q10728)
T1 sequence: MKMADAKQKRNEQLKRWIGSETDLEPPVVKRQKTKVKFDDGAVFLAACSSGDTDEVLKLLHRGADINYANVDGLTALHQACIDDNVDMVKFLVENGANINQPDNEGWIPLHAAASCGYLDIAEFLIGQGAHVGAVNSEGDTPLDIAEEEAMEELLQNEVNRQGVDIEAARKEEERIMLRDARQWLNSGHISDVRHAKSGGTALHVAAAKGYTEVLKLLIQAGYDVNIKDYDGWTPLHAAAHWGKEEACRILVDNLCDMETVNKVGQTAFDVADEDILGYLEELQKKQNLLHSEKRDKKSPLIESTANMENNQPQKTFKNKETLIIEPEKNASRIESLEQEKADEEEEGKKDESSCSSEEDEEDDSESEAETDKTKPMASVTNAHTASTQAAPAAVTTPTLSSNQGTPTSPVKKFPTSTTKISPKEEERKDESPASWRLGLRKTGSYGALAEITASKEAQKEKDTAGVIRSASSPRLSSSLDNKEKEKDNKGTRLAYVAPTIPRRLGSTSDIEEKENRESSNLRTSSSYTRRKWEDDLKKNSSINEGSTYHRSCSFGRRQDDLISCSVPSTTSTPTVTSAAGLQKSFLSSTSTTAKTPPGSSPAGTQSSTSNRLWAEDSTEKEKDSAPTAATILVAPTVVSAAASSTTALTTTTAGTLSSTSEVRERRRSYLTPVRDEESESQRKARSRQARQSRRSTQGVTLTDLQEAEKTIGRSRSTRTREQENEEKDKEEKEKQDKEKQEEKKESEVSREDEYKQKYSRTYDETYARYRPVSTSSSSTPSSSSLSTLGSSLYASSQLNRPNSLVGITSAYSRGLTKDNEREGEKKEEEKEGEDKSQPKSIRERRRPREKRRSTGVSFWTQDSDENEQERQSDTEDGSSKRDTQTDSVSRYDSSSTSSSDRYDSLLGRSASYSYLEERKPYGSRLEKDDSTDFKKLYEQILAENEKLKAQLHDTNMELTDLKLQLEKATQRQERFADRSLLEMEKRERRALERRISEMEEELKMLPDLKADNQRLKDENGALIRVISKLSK

[2] = target: protein phosphatase-1 catalytic subunit delta (PP1cδ), endogenous in B50 neuroblastoma cells (rat (endogenous in B50; the species of the line is from memory, the paper does not state it)) (UniProt P62142)
[3] = target: synaptosomal-associated protein of 25 kDa (SNAP-25), endogenous in B50 neuroblastoma cells (rat (endogenous in B50; the species of the line is from memory, the paper does not state it)) (UniProt P60881)

binding [1]: binds
binding [2]: no binding
Molecule: synaptosomal-associated protein of 25 kDa (SNAP-25), endogenous in B50 neuroblastoma cells (from UniProt P60881 1-206)

binding [1]: binds
Molecule: protein phosphatase-1 catalytic subunit delta (PP1cδ), endogenous in B50 neuroblastoma cells (from UniProt P62142 1-327) (enzyme)

binding [2]: binds
binding [3]: binds
B1: myosin phosphatase targeting subunit (MYPT1), endogenous in B50 neuroblastoma cells (protein, UniProt Q10728 1-1032)
chain: T1 sequence
